This is one part of the list. At the low end of the ranking the order means little. Measured with an extract: partners may take part in the binding.

The test concerns the target T1, HNF4alpha2 (COS-7 nuclear extract) (UniProt P41235).
T1 sequence: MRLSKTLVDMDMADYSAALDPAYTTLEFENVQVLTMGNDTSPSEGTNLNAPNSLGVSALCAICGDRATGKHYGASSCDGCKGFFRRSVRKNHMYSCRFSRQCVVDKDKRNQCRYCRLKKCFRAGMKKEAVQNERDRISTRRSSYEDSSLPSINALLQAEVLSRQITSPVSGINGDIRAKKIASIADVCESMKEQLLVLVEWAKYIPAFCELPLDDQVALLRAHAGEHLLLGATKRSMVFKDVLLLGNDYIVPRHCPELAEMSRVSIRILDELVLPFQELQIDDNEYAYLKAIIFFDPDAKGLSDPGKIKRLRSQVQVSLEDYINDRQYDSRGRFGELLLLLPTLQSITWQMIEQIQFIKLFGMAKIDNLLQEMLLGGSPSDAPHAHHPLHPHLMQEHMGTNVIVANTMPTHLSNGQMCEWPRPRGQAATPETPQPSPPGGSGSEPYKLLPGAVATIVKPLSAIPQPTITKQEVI
As to the kind of experiment: protein-binding microarray. The note with it: COS-7 nuclear extract on double-stranded Agilent 4x180k PBM; binding buffer, salt, pH and temperature not given; high values mean tight binding; double strand, one strand shown; sequences stand for … in …GCCTAGGGAGATTAGAGTATCGGTCGA
For the sequence GTGTGCACAAGTCCTCACAATAATGAGAAA, the binding signal (log2 normalized intensity) was -1.12. GCTTCTGTTCGCAGACCTGCCAAAGTGTAC: the binding signal (log2 normalized intensity) worked out at 1.2.

Turning to GCTATGCCTTAGCAAACAGACTGGTGGCAT, the binding signal (log2 normalized intensity) was -0.98. With TCCCAGTTGTCTGATGGCTGCTTCACACAA, the binding signal (log2 normalized intensity) is -1.29. Then GTGTGTATGAGAGAGAGAGAGAGGTGGGCA, with 0.00741; and TAGCGAGGCGGAAGTAAGGCGGAAGTACTG, with -1.14.

For CTGTGATCTGGATTTTCAGGTTCCCCAGTG, the binding signal (log2 normalized intensity) was determined as 2.15. In the case of TAAAGATATGGAACACTTTCAGAGAGATTG, the binding signal (log2 normalized intensity) is -0.767. Next, GAGCACATTCCTGCACCATAACCCTCAGCT: -1.12. Turning to TGGGCTTTAGGTTTGGTGTTTAATTTTCAA, the binding signal (log2 normalized intensity) worked out at 0.532. Consider GAATAAATACATAAAGTCCAAACCCCTATG, for which the binding signal (log2 normalized intensity) was 1.73. On to TCCTTTTGACCACAGTTATCTCCCCAGCTT, for which the binding signal (log2 normalized intensity) turned out to be 2.47.

With GGCGTTGACTGATCCCTCTGGAGGCTCTCT, the binding signal (log2 normalized intensity) is -0.968. On to AACTTACGCACATTACTTTGATTGGAAAAA, for which the binding signal (log2 normalized intensity) was 0.829. In the case of ACCCAAGGGATGGCATCACCTTTGGTCAGC, the binding signal (log2 normalized intensity) was found to be 3.28. Regarding ATTAATCAAGGCTGCCTGGCAGGGTGGGGT, the binding signal (log2 normalized intensity) was -0.418.

Take TGCCTGTGTGTTCTGCTATTCATTACAGAT: the binding signal (log2 normalized intensity) was 1.74. Turning to ATTGACAAAGACCAGTGCTCTTTCTTCTCT, the binding signal (log2 normalized intensity) is -0.734. Consider CTTAGGCCTCCCAGAACGTGGCCTTTAATC, for which the binding signal (log2 normalized intensity) is 2.15. TTACTAAAGTTAGAATGTGCTGGATGTTTC: the binding signal (log2 normalized intensity) amounted to 1.01. In the case of ATGGGTCTGGGATGTTGGGAGGAGTGGACT, the binding signal (log2 normalized intensity) is 2.38. With CCTTTCAAGGGCTTACAACTCTAAGGGGGA, the binding signal (log2 normalized intensity) was -1.15. Take AGGTCTACCAGGAATATTGCCCCCTAATGG: the binding signal (log2 normalized intensity) amounted to 2.98. Regarding AACATGGACTTTGTTGTTTGCCTCTGAAAA, the binding signal (log2 normalized intensity) amounted to 2.31. In the case of TGACCATCCCAAAGCTTTTTGATTGCTTAT, the binding signal (log2 normalized intensity) was -1.12. Next, TTGCTCTGCATGGATTAGCCAGCTATGATA: -1.04; CACAAATACTATTCATCCTCCAAAACCCAG: 1.51; CAGGATGTTTTCTCTAGCGCTTATCAGATG: 0.202. On to ACCTGAACTTTGCTCTGTGACACAAAGAAG, for which the binding signal (log2 normalized intensity) was found to be 2.76. In the case of AAAAAAAAAAATTACTGACCCTTGCACTGT, the binding signal (log2 normalized intensity) was determined as 4.58.

Take ATTCCTATCGGTCACCATAAAACATTCTAT: the binding signal (log2 normalized intensity) was -0.638. ACTGCAATAAAGTGGGTTGAAGTTCTCCCT: the binding signal (log2 normalized intensity) was -0.374. For CGGGGTCAGGCCGTGGTGTATGATGACGCC, the binding signal (log2 normalized intensity) worked out at 1.01. Turning to AAGAAACTCGTGGCATTTTTGCCCCTGCCC, the binding signal (log2 normalized intensity) was determined as 3.21. In the case of CCAACGCCTCCCTCCTTCCGCGGACGTGTT, the binding signal (log2 normalized intensity) is 1.28. Next, CTTCATCTGGAGACAAATGCTTTTGAACAC: 1.27; TACCAGGCAGTCGTGATAGTGACCACCTGG: -0.182; TCATCCAAAGACTAATGCATTCCCAGCAAG: -1.11.

For GTCCCTGGCCCCGGGGCGGGGGCGGGCTGG, the binding signal (log2 normalized intensity) is -1.01. Turning to CTATTCTGTAACACAGTTGCACTCACTAGC, the binding signal (log2 normalized intensity) is -1.12. On to CCTGCTTCCAGGCTTGTACCTTGACCTTCT, for which the binding signal (log2 normalized intensity) stood at 6.62. Then CCCAGACCGCCATAACTCAGCGGGAGGCAA, with -0.992; and ATTCCAGTGTTTCAAAGGAGTGTCTTTCTC, with 1.43; and AGATCAAAGAGAAAGTAAGTGCACAGCCAG, with -1.21. CCTCTTTGCGGATAGATATGTTGAAGTGAC: the binding signal (log2 normalized intensity) worked out at 1.74. TGGCTGGCCATGAGTGAGCACTTAACAAAT: the binding signal (log2 normalized intensity) was -1.02.

With TTCAGCCAGATTCTCTCACTGCTCTGGCCA, the binding signal (log2 normalized intensity) is -1.32. As for TAACACCTGCCTTAGAAAGAGGGTGTAAGA, the binding signal (log2 normalized intensity) was -1.07. Take AGCTTTACTAAAACAGGGAGCAGGCAGATT: the binding signal (log2 normalized intensity) is -1.13.

As to CATGCCCCAGATGCCCAGCAGAGGGAGCCG, the binding signal (log2 normalized intensity) was 1.54. Then TAGCTGAGTTGACCTGTGTTGACAGATGAA, with 2.22; and TTGTTTTTGCTTGGAATGCCCTTATCTCAT, with 2.32. Next, GGGCTCCCGGACCCTGACTCTGCAGCCGAA: -1.24; TGGAGAGCAGATGCTTCCCAGAAAGAATGA: -1.08. For ATGTCACAGGGATTACGATCCTGCCCTTCT, the binding signal (log2 normalized intensity) stood at 1.9. In the case of ACGGTTTCGTGGGGACCCAGGCTTGCAAAG, the binding signal (log2 normalized intensity) was -1.14. ATCTCACACAGTACTTTGTACATGGGAATA: the binding signal (log2 normalized intensity) turned out to be 1.32. For the sequence CTGGACAGAGATAAGGTAGGCACGTAAATA, the binding signal (log2 normalized intensity) is -1.19. Then TACGTGACCTACTTAGTCTCCAGCCCCCAG, with 4.02; and GCTTCCCTAGCAACCTCCACATTGCAACAA, with -1.08. Turning to GCCGGACCGGCCAAACTGGTTTCTCCGCTC, the binding signal (log2 normalized intensity) was -1.19. For GGCATCCCTGCCGTGGCTGGAACTCCTCCG, the binding signal (log2 normalized intensity) was -1.15. As to AAGACTTTATTTGAAGAAATGGTGGACTTT, the binding signal (log2 normalized intensity) stood at 6. Next, ACTTGACAAATGGGGCAGCTGGGGCCCAGG: -1.08. With TAGGACTCTAGTGTTCTCTTTGTGCTTTTT, the binding signal (log2 normalized intensity) is 1.72. Turning to TCTCAGGTGGGCAGAGGCCTGATGGTGAGT, the binding signal (log2 normalized intensity) was -0.39. AAGGGGGCAAAGGGCATGGGCAGCTTTGAA: the binding signal (log2 normalized intensity) is 4.56. Next, TGAGGCAAGCAAAAGCCAAGGCATCTGGGG: -1.08; GGGGGGTTGTTTTTAAAAGGCTGCCTTTCC: 0.0995; TCTGCTGAGTATCCAAAGGTCAGTGACAAA: 4.12.

Regarding GTTTCCTAGTTCAAACAGGCCCTCCTCCTC, the binding signal (log2 normalized intensity) amounted to 0.368. Take TAGAACACTTTCCACTCTCTACTGATATGT: the binding signal (log2 normalized intensity) turned out to be 1.12. Regarding GATACCATCAGATACCTACTCTGCTCTTCT, the binding signal (log2 normalized intensity) is -1.13. CATTGACTGAGATAGATAAGGCTGAGTGGA: the binding signal (log2 normalized intensity) was -0.735. With AGTCCAGACAAGTCCCAAGTATTTTCAGCC, the binding signal (log2 normalized intensity) is -0.962.

Regarding CAAACGGATATTTGATCAAAGGTCAGCTCT, the binding signal (log2 normalized intensity) turned out to be 5.04. Take TTGGATATCATATCATCTTCCCTGTTCAAA: the binding signal (log2 normalized intensity) is 1.78. Take ATGGGACCTTTGCCCTTCTTGTTAACCTCC: the binding signal (log2 normalized intensity) stood at 3.94.

Turning to GTCCAAAGTCTCAACTAAGTGTTATCTAAA, the binding signal (log2 normalized intensity) is 1.28. Then AGACAAGATATGAGGCCAGTTTTCCCAAAG, with -1.13; and CTATTGTCCTATGACCCTGCCAAATCCCCC, with 4.52; and GGTCTTCTAGAAACAACACACCTTGCCACC, with -1.09. On to AGCATGGAGAAAATTCTGGACCTTCTTATC, for which the binding signal (log2 normalized intensity) stood at 0.911. Turning to GTAACATTCCTAGATATCAGGAAGGTCAGA, the binding signal (log2 normalized intensity) was 1.26. Next, TTCTCCAGCTGCTGTAAGGTTACTGAGGGC: 0.386; GCGGCATTCCTGTCAAAATCTGATCTTTCC: 1.45; GAACAATTATTGCCTGGCATCTAACCTTCG: 0.557. Then TAGACAAATTTGTTTACTTCTGTCTCCAGA, with -1.19.

As to TATGGATAGGCACATATTGGATCTCTGGTA, the binding signal (log2 normalized intensity) was determined as 0.865.

As to AGGGCAAAAGGGCAAAACTGTCACAAGAAA, the binding signal (log2 normalized intensity) was found to be 0.982. With TACGCTGGGCAATAAGCATTCTGTTTCCTA, the binding signal (log2 normalized intensity) is -0.931. As to CAAATTGGATGTTGAACCTCTGTCCTTGGC, the binding signal (log2 normalized intensity) was found to be 2.25. For the sequence TGTTGGAGTTCTAAGAGCCTACTGAGAGGA, the binding signal (log2 normalized intensity) is -1.19.

Values taken from publication PMC10726135.
